Measured values: the supplement of paper PMC12217912
This is one part of the list. Sequences were assembled here from the parent chain. Values near 0.05 are background.

B1: TEV protease; numbered along this chain (parent)
chain: MGESLFKGPRDYNPISSSICHLTNESDGHTTSLYGIGFGPFIITNKHLFRRNNGTLVVQSLHGVFKVKDTTTLQQHLVDGRDMIIIRMPKDFPPFPQKLKFREPQREERICLVTTNFQTKSMSSMVSDTSCTFPSGDGIFWKHWIQTKDGQCGSPLVSTRDGFIVGIHSASNFTNTNNYFTSVPKNFMELLTNQEAQQWVSGWRLNADSVLWGGHKVFMVKPEEPFQPVKEATQL

Variants of: B1
Assay: raw area under fraction-flipped curve 0-4 h after induction (AUC4h, not background-subtracted), DNA-recorder readout of cleavage of the substrate (dimensionless); higher = more cleavage of the substrate by the protease variant
Conditions: temperature: 34 °C; time window: 0-4 h after rhamnose induction
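Further: Bxb1 expression induced with 0.2% (w/v) L-rhamnose at OD600 near 0.5, cultures sampled hourly, flipped fraction per protease–substrate barcode pair counted by paired-end Illumina sequencing.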

Variant	area with substrate ENDYFQS	area with substrate ENEYFQS	area with substrate ENHYFQS	area with substrate ENIYFQS	area with substrate ENNYFQS	area with substrate ENSYFQS	area with substrate ENVYFQS	area with substrate ENFYFQS	area with substrate ENGYFQS	area with substrate ENPYFQS	area with substrate ENQYFQS	area with substrate ENRYFQS	area with substrate ENTYFQS	area with substrate ENWYFQS	area with substrate ENMYFQS	area with substrate ENYYFQS	area with substrate ENKYFQS
I15R	0.0646	0.0565	0.064	0.0766	0.0517	0.0518	0.031	–	–	–	–	–	–	–	–	–	–
T23F	0.0558	0.0531	0.0448	0.0926	0.0526	0.0554	–	0.0572	0.0648	0.0482	0.0621	0.0694	0.0521	0.0069	–	–	–
L33T	0.0589	0.0692	0.0584	0.143	–	–	–	0.0351	0.0569	0.0691	0.0688	0.0573	–	0.0557	–	–	–
R50T	0.0644	–	0.0669	–	0.0658	0.0541	–	0.0752	–	0.0642	0.0553	0.0568	0.0615	0.0561	0.0904	0.0595	–
R51T	0.02	–	–	–	–	–	0.0904	0.0647	–	–	0.054	–	–	–	–	0.0424	–
L61I	0.0548	0.0676	–	–	0.0634	0.0644	0.0947	–	0.0512	0.0391	–	0.0379	–	–	–	–	–
G63E	0.0514	0.0778	0.0633	0.104	0.0678	–	0.0592	0.0617	–	–	0.0426	–	0.072	0.0224	0.0732	–	–
V67E	0.0512	0.0488	–	–	–	0.0518	–	–	–	0.064	–	–	–	–	–	–	0.0905
Q74T	0.0639	0.0637	–	0.0876	–	0.0458	–	0.0469	–	–	0.0654	0.06	–	0.0617	–	0.0589	–
Q75Y	0.0583	0.0741	–	–	0.066	0.0494	–	0.0625	0.0612	–	0.0557	0.0579	0.0644	0.0573	–	–	–
P89K	0.0564	0.0483	–	–	0.0501	–	0.0555	–	–	0.0572	–	0.0592	0.0438	–	0.0971	–	–
K90E	0.0375	0.0579	–	–	0.0621	0.0587	–	0.0715	–	–	0.0684	–	0.0676	0.0689	–	0.0601	0.0578
P93G	0.0676	–	0.0472	0.102	0.0373	0.0613	0.0742	0.0685	0.0628	–	0.0515	–	0.0503	–	–	0.0535	–
P94C	0.0755	–	0.0554	–	–	0.0583	0.0678	–	–	–	0.0685	0.0548	–	–	0.0826	–	0.0761
F95P	0.058	0.0577	–	–	–	0.0382	0.0672	–	0.046	0.0508	0.0339	–	–	0.0079	0.0417	0.0554	0.0425
F95Q	0.0657	–	0.0622	–	–	–	–	0.0597	–	–	0.046	–	0.0502	0.0455	–	–	0.0677
L99A	0.0743	0.0624	–	0.0894	–	0.0637	0.076	–	–	0.0497	–	0.0396	–	–	0.0791	0.0606	–
R102F	0.051	0.0462	–	–	0.0195	0.0405	–	–	0.0468	–	–	–	0.0031	–	–	–	0.0464
I110A	0.0633	–	–	–	0.0318	–	–	–	–	0.0525	0.0627	0.0647	–	–	–	–	0.0384
N116I	0.0674	–	–	0.0781	–	0.061	0.0831	–	–	–	0.07	0.0726	–	–	–	–	–

Variant	area with substrate ENDYFQS	area with substrate ENEYFQS	area with substrate ENHYFQS	area with substrate ENIYFQS	area with substrate ENNYFQS	area with substrate ENSYFQS	area with substrate ENVYFQS	area with substrate ENFYFQS	area with substrate ENGYFQS	area with substrate ENPYFQS	area with substrate ENQYFQS	area with substrate ENRYFQS	area with substrate ENTYFQS	area with substrate ENWYFQS	area with substrate ENMYFQS	area with substrate ENYYFQS	area with substrate ENKYFQS
F117I	0.0668	0.0557	0.0529	–	–	–	–	–	0.0606	–	–	0.0631	–	0.0614	–	0.0712	0.0618
F117T	0.102	–	0.0374	–	–	–	–	–	0.0564	–	0.0528	0.0397	–	–	–	–	0.0436
S135T	0.0614	0.0664	0.044	–	–	0.0582	0.0698	0.0616	0.0543	0.0672	0.07	0.059	0.0671	0.0682	–	0.0674	–
G138I	0.0504	0.0592	0.0591	–	0.0387	0.0578	–	0.0561	0.0418	–	–	0.0615	–	0.0481	–	–	–
W141K	0.0551	0.0646	0.0603	0.0612	0.0407	0.0651	0.0516	0.0439	0.0559	–	0.0436	0.0663	–	–	0.0619	0.0568	–
D149W	0.059	0.0503	0.0285	0.0603	0.0619	0.0632	0.0584	0.0673	0.0618	0.0557	0.0608	0.0558	–	0.0345	0.0587	–	–
G153A	0.0572	–	–	–	–	–	–	–	–	–	–	–	0.047	0.0979	0.0505	–	–
T159H	0.0677	0.0618	–	0.122	–	0.0883	–	0.0741	–	–	0.0546	0.069	–	0.0451	–	–	–
T159W	0.0619	–	–	–	–	0.0436	–	–	–	–	–	0.0497	–	–	0.0572	–	–
S169L	0.0611	0.051	0.0644	–	–	0.0381	–	–	–	–	–	–	0.0042	–	–	0.0703	0.0637
A170L	0.0429	–	–	–	0.049	0.0596	–	0.0553	0.0722	–	–	0.0701	–	–	–	–	–
S171N	0.0601	0.0696	0.0703	–	0.0593	0.0715	–	0.0653	0.0571	–	0.0594	0.0305	–	0.0498	–	0.0567	0.0524
T181D	0.0658	0.0602	–	–	–	0.0557	–	–	–	–	–	–	–	–	–	–	0.0524
T181W	0.064	–	0.0596	–	–	0.0646	0.0587	0.0656	–	0.0692	0.083	–	–	–	0.0706	–	–
S182D	0.0573	–	–	–	–	0.0261	0.0693	–	0.0681	0.0674	0.0532	0.0579	–	–	–	–	–
M188K	0.0648	0.0619	0.0473	–	0.0552	0.0523	–	0.0747	–	0.0459	0.0832	–	0.0542	–	–	–	0.0691
L190I	0.0614	–	0.0482	–	0.0555	0.0607	0.082	–	0.047	0.0501	0.104	0.0574	–	–	–	–	–
W203Q	0.0613	–	–	–	0.0835	0.046	–	–	–	0.0443	0.0548	0.0292	0.0514	–	0.0469	0.0594	–
N206Q	0.0587	–	0.0442	0.104	0.048	0.0219	–	0.0579	–	0.0602	–	0.0513	0.0575	–	–	0.0635	–
